Results on 83 compounds are retold here after PubChem BioAssay AID1346428 (National Center for Advancing Translational Sciences (NCATS), 2018).

“And” between values parts separate entries of the source, which are not always exact repeats. Identical values can stand only once. In all, about 48,000 compounds went through this assay and about 1,200 (2.5%) were called active. Another 2% or so got no clear call; they are omitted.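 How the source made its calls: active means activation of at least 60% and not above a set upper limit (about 1 call in 100 departs from these limits); inconclusive means activation of 40% to 60%, or above that upper limit; inactive means activation under 40%.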 Some of the results follow.

For this assay, the target named is Probable G-protein coupled receptor 32 (Homo sapiens) (UniProt O75388). In words: qHTS for Agonists of Human Resolvin D1 Receptor DRV1. Further: 0% is about no effect. The following applies: CHO-K1 GPR32 beta-arrestin PathHunter luminescence, 90 min; at 76.9 µM; active compounds read high; zero percent set by DMSO-only wells. The method, boiled down: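 Step 1: seed CHO-K1 GPR32 beta-arrestin cells, 2,500/well, overnight at 37 °C. Step 2: add compounds, 90 min at 37 °C. Step 3: detection reagent, 1 h ambient, then luminescence.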
Chain of UniProt O75388 (O75388 whole entry, looked up): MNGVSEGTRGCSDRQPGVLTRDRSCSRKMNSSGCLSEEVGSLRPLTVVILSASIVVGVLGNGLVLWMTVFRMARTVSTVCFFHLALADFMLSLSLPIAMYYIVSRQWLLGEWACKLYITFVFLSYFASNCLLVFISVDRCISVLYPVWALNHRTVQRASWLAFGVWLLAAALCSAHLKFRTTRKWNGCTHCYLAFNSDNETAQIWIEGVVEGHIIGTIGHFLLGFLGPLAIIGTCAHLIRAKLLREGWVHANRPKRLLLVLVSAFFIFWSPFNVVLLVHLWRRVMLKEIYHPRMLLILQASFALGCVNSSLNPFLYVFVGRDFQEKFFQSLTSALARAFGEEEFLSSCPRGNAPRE
As for `Cc1cccc(CNC(=O)C2CCN(c3nc4ccc(Cl)cc4[nH]3)CC2)c1`, the activation is inactive: -8.21%. As for `CCn1c2ccc(F)cc2c2nnc(SCCN3CCCCC3)nc21`, the activation is inactive: -21.8%. The figure for `Cn1cnc2c(F)c(Nc3ccc(Br)cc3Cl)c(C(=O)NOCCO)cc21` is inactive: 6.11%; for `Cc1cc(C)c2c(C)c(C(=O)N3CCC(c4nc5ccccc5s4)CC3)oc2c1` it is inactive: 8.21%. The figure for `COc1cc(C2c3c(oc4ccc(C)cc4c3=O)C(=O)N2Cc2ccc(F)cc2)ccc1O` (stereo not drawn) is inactive: -10.9%. The figure for `Cc1nc2c3ccccc3nc(NNC(=O)CCC(=O)N3CCN(c4ccccc4F)CC3)n2n1` is inactive: -7.41%; for `Cc1ccc(NC(=O)CCC(=O)N2CCOc3ccccc32)c(Cl)c1` it is inactive: -6.33%; for `CC1(C)O[C@@H]2C[C@H]3[C@@H]4C[C@H](F)C5=CC(=O)C=C[C@]5(C)[C@H]4[C@@H](O)C[C@]3(C)[C@]2(C(=O)CO)O1` it is inactive: -9.58%. Turning to `Cc1ccc(C(=O)Nc2ccccc2F)cc1S(=O)(=O)N1CCOCC1`, the activation was inactive: 2.32%. Take `N#Cc1ccccc1NC(=O)C(=O)NCC(c1ccc2c(c1)OCO2)N1CCN(c2ccccc2)CC1` (stereo not drawn): the activation was inactive: 3.48%.

On to `Cc1nc2cccnc2n1-c1cccc(C(=O)NCCc2ccc(Cl)cc2)c1`, for which the activation is inactive: 2.51%. The figure for `Cc1c(C(=O)Nc2ccc(Br)cc2F)sc2ncnc(N(C)C3CCCCC3)c12` is inactive: -5.77%. The figure for `CCCCN(CC)C(=O)Cn1c(=O)n(-c2ccc(OCC)cc2)c(=O)c2c3c(sc21)CCCC3` is inactive: -16.4%; for `O=C(Nc1ccc2nc(SCC(=O)N3CCCc4ccccc43)sc2c1)c1ccc(F)cc1` it is inactive: -14.6%. The figure for `COc1cc(CN2CCc3nc(N4CCN(c5ccccc5F)CC4)ncc3C2)ccc1OC(C)C` is inactive: 1.03%; for `CCOC(=O)c1c(C)[nH]c(C)c1S(=O)(=O)NCC(=O)N(C)c1ccc(C)c(C)c1` it is inactive: -4.6%. For the compound `O=C(Nc1c(C(=O)c2ccccc2)oc2ccccc12)c1cc(=O)c2ccccc2o1`, the activation is inactive: -1.99%. The figure for `Cn1cnc(S(=O)(=O)N2CCC(C(=O)N3CCN(c4cccc(C(F)(F)F)c4)CC3)CC2)c1` is inactive: -5.9%; for `CSc1ncc(C(=O)Nc2ccccc2C(=O)c2ccccc2)c(C)n1` it is inactive: -5.34%.

Turning to `CCOC(=O)c1cnc2c(OC)cccc2c1Nc1cccc(O)c1`, the activation was inactive: -40.4%.

As to `CC(C)(C)c1ccc(NC(=O)CSc2nnc3scc(-c4ccccc4)n23)cc1`, the activation is inactive: 18.2%. The figure for `COc1ccc(NC(=O)CSc2nc(-c3ccccc3)nc3cc(=O)[nH]n23)cc1` is inactive: 13%; for `CCOC(=O)c1c(C)oc2nc(C)nc(NCc3cccc(OC)c3)c12` it is inactive: 4.34%; for `CCCCN(CC)C(=O)Cn1nc(C)c2c(C)n(-c3ccccc3)nc2c1=O` it is inactive: -4.69%.

Regarding `O=C(c1ccccc1)c1ccc2nc(Nc3ccccc3Cl)c3nncn3c2c1`, the activation is inactive: -18%. The figure for `CCOCN(C(=O)CSc1nc2ccccc2[nH]1)c1c(C)cccc1CC` is inactive: 6.84%. Consider `Cc1ccc(N2CC(C(=O)Nc3ccc(Cl)cc3Cl)CC2=O)cc1` (stereo not drawn), for which the activation was inactive: -24.1%. On to `Cc1cccc(Cn2c(SCc3ccc(C(=O)NC4CCCCC4)cc3)nc3cccnc32)c1`, for which the activation was inactive: -13.6%. The figure for `COc1ccccc1CNC(=O)CCCn1c(=O)c2ccccc2n(Cc2ccccc2F)c1=O` is inactive: -6.65%; for `CCOC(=O)c1cc(OC(=O)c2ccc(OC)c(OC)c2)n(-c2ccccc2)n1` it is inactive: 4.83%. In the case of `CCn1c(=O)cc(SCC(=O)N2CCN(c3cc(C)ccc3C)CC2)c2ccccc21`, the activation is inactive: 35.4%.

On to `COc1ccccc1NC(=O)CCNS(=O)(=O)c1ccc2c(c1)CCCC(=O)N2`, for which the activation is inactive: 25%. On to `CCOc1ccccc1CNC(=O)c1cnc2sc(N3CCC(C)CC3)nn2c1=O`, for which the activation was inactive: -10.7%. As for `O=C(CSc1nnc(-c2ccccc2)o1)N1CCCc2ccccc21`, the activation is inactive: -12.7%. The figure for `CN(Cc1cc(Br)cc(Br)c1N)C1CCCCC1` is active: 95.3%; for `Cc1nn(C(C)C(=O)NCc2cccc(F)c2)c(=O)c2c1sc1ccccc12` (stereo not drawn) it is inactive: -14.9%; for `COc1ccc(C(=O)Nc2nnc(S(=O)(=O)N3CCOCC3)s2)cc1` it is inactive: 14.9%. For `CCc1ccc(-c2csc(-c3cc4cc(Br)ccc4oc3=O)n2)cc1`, the activation was inactive: -1.77%.

As for `CCN(CC)C(=O)Cn1cc(SCC(=O)Nc2ccc(C)cc2)c2ccccc21`, the activation is inactive: -4.58%. The figure for `CCOC(=O)N1CCc2c(sc3c2c(=O)n(-c2ccc(Cl)cc2)c(=O)n3CC(=O)Nc2ccccc2)C1` is inactive: -11.7%; for `Cc1ccc(C)c(N2CCN(C(=O)Cn3nc(Cc4cccnc4)c4ccccc4c3=O)CC2)c1` it is inactive: -57.8%; for `COc1ccc(C)cc1NC(=O)C(NS(=O)(=O)c1cccc2nsnc12)c1ccccc1` (stereo not drawn) it is inactive: -30.9%. Take `Nc1c(C(=O)NCc2ccccc2)nnn1Cc1cccc(Br)c1`: the activation is inactive: -19.2%. The figure for `Cc1cccc(NC(=O)Cn2c(=O)n(CCC(=O)N3CCc4ccccc4C3)c(=O)c3ccccc32)c1` is inactive: -5.61%. The figure for `CSc1ccc(CCNC(=O)c2cc3c(-c4ccccc4F)nn(C)c3s2)cc1` is inactive: 0.987%; for `CCOC(=O)c1cccc(NC(=O)c2cc3cc4ccc(C)cc4nc3s2)c1` it is inactive: 0.686%. The figure for `Cc1cc(C)cc(Nc2nc3c(S(=O)(=O)c4cccc(Cl)c4)nnn3c3ccsc23)c1` is inactive: -8.99%. As to `CCOC(=O)c1cc(-c2ccc(F)cc2)n(CCC(=O)NC2CCCCC2)c1C`, the activation was inactive: -25.8%. As for `CCCCc1oc2ccccc2c1C(=O)c1cc(I)c(OCCN(CC)CC)c(I)c1`, the activation is inactive: 34.1% and inactive: -24.2%. For the compound `CCOC(=O)c1cc2c(=O)n3ccccc3nc2n(C)c1=NC(=O)c1cc2ccccc2o1`, the activation is inactive: -7.27%. In the case of `CC(=O)Nc1ccc(C(=O)CSc2nnc3ccc4ccccc4n23)cc1`, the activation was inactive: -2.94%.

As for `O=S(=O)(NCc1ccc(Cl)cc1)c1ccc(N2CCCCS2(=O)=O)cc1`, the activation is inactive: 27.5%.

In the case of `CCOc1ccc(NC(=O)NCCN2CCN(c3ccccc3F)CC2)cc1`, the activation was inactive: -18.9%. Turning to `COc1cccc(NC(=O)c2ccc(-c3nc(COc4ccc(C)cc4)c(C)o3)cc2)c1`, the activation was inactive: -5.08%.

Turning to `Cc1cc(=O)n2nc(N3CCC(C(=O)Nc4ccc(Br)cc4F)CC3)sc2n1`, the activation was inactive: -2.24%. Take `Cc1ccc2c(c1)c1c(c(=O)n(-c3ccccc3C)c(=O)n1CC(=O)NCC1CCCO1)n2C` (stereo not drawn): the activation was inactive: -55%. In the case of `Cc1ccc(C)c(NC(=O)CCCN2C(=O)C(c3ccccc3)Oc3cccnc32)c1` (stereo not drawn), the activation was inactive: 9.11%.

With `O=C(CNC(=O)c1ccc(Cl)cc1)OCc1cc(=O)n2nc(C3CCCCC3)sc2n1`, the activation was inactive: 0.499%. The figure for `Nc1c(C(=O)Nc2ccc(Br)cc2)sc2nc(-c3ccncc3)ccc12` is inactive: -20.5%. Turning to `CCOC(=O)c1cccc(NC(=O)N2CCC(CN3CCCCCC3)CC2)c1`, the activation is inactive: -15.3%. The figure for `CC(=O)Nc1cccc(NC(=O)CSc2cn(CC(=O)N3CCCCCC3)c3ccccc23)c1` is inactive: -7.97%. The figure for `CNC(=O)C1CCC(Cn2c(=O)c3sccc3n(CC(=O)Nc3cc(F)ccc3F)c2=O)CC1` (stereo not drawn) is inactive: -12.1%.

Consider `O=C(c1cn(CCOc2ccc(Cl)cc2)c2ccccc12)C1CCCCC1`, for which the activation is inactive: 10.8%.

`O=[N+]([O-])c1cc(-c2nc(-c3ccncc3)no2)ccc1NCc1ccccc1`: the activation is inactive: -14.5%. The figure for `COc1cn(CC(=O)Nc2cc(C)ccc2C)c(CN2CCCCC2)cc1=O` is inactive: -4.11%; for `O=C(Nc1ccc2oc(-c3cccc(Cl)c3Cl)nc2c1)c1cccc(Br)c1` it is inactive: 9.56%. Take `CCN(CC)S(=O)(=O)c1ccc(C(=O)NCCSc2c(-c3ccc(OC)cc3)[nH]c3ccccc23)cc1`: the activation was inactive: -24.8%. As for `COc1ccccc1NC(=O)C1=C(C)Nc2nc(SCc3ccccc3Cl)nn2C1c1ccncc1` (stereo not drawn), the activation was inactive: -2.16%. As to `CC(=O)c1c(C)oc2ccc(N(C(=O)c3ccncc3)S(=O)(=O)c3ccc(C)cc3C)cc12`, the activation was inactive: 8.26%. The figure for `COc1ccc(-c2ccc(=O)n(CC(=O)NCCc3ccccc3)n2)cc1` is inactive: -2.34%. Regarding `CCOc1ccc(C(=O)c2cn(CC(=O)Nc3cc(OC)ccc3OC)c3cc(OC)c(OC)cc3c2=O)cc1`, the activation was inactive: 18.5%. As for `COc1ccc(NCc2nnc3n2CCCCC3)c(OC)c1`, the activation was inactive: 10.8%. Regarding `O=C(CN1C(=O)C2(SCC(=O)N2c2ccc(F)cc2)c2ccccc21)NCCc1ccccc1` (stereo not drawn), the activation is inactive: -7.76%. The figure for `CCc1ccc(OCCSc2nc(-c3cccc(C)c3)nc3cc(=O)[nH]n23)cc1` is inactive: -33.6%; for `COc1ccc(NC(=O)CCSc2nc(-c3ccco3)cc(C(F)(F)F)n2)cc1OC` it is inactive: 25.4%. The figure for `O=C(O)c1cccnc1` is inactive: -8.23%; for `Cc1cc(C)cc(Nc2cc(C(=O)NCc3ccccc3)c3ccccc3n2)c1` it is inactive: -4.3%; for `Cc1cc(C)c(NC(=O)C(C)n2nnc3sc(-c4ccccc4)cc3c2=O)c(C)c1` (stereo not drawn) it is inactive: -3.86%. Consider `CCOc1cc(CNCCSc2nnnn2-c2ccccc2)ccc1OC`, for which the activation is inactive: -0.577%. On to `O=C(Nc1ccccc1C(F)(F)F)c1cc2ccccn2n1`, for which the activation is inactive: -8.39%. Regarding `N[C@@H](COP(=O)(O)O)C(=O)O`, the activation was inactive: 1.46% and inactive: 3.62%. The figure for `CCCNC(=O)CN1CCN(c2ncc(NC(=O)c3ccc(Cl)cc3)cc2C(=O)O)CC1` is inactive: -1.97%. The figure for `CCOC(=O)c1ccc(-c2ccc(/C=C(\C#N)C(=O)Nc3ccc(C)cc3OC)o2)cc1` is inactive: -2.37%.
